This is an account of results in paper PMC6919601, “Identification of Plasmodium dipeptidyl aminopeptidase allosteric inhibitors by high throughput screening” (PLoS ONE, 2019).

Each structure is given as a SMILES string. Among all 110,000 compounds or so, about 230 (0.21%) showed an effect of 50% or more. This is one part of the list.
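Further: 30 min substrate incubation versus DMSO and 10 µM JCP410 controls.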

Sequence of DPAP1 (Q8IIJ9 whole entry, looked up): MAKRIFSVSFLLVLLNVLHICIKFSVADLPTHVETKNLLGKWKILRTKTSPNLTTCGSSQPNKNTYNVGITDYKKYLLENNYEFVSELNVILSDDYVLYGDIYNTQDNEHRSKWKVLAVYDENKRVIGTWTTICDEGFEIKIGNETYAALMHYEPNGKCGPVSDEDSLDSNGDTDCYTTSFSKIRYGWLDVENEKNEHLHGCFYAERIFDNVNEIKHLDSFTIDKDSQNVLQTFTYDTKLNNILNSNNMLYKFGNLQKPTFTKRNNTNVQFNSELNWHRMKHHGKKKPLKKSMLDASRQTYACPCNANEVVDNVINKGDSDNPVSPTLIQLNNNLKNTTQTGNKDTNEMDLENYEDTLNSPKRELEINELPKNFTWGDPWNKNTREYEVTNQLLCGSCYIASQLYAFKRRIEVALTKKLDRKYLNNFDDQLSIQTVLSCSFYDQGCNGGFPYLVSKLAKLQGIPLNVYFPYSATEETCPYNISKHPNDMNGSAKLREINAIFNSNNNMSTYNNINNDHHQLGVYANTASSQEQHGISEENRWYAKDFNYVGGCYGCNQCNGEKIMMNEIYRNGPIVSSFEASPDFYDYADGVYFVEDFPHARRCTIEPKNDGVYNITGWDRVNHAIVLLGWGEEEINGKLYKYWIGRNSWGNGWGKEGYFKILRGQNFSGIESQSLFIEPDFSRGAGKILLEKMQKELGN

This experiment concerns the target DPAP1 (Plasmodium falciparum, UniProt Q8IIJ9). Kind of experiment: primary screen, percent inhibition; read by cleavage of a fluorogenic dipeptide substrate; higher = more effect of the substance. The arrangement: species or system P. falciparum D10 trophozoite lysates; single well.
In the case of `N#Cc1cc2c(nc1SCc1cccnc1)CCCC2`, the “% Inhibition @ 10 uM” value is listed as -0.68%. For the molecule `C=CCOc1ccc(C(=O)C2=C(O)C(=O)N(CCN(C)C)C2c2ccc(C(C)C)cc2)c(C)c1` (centres unmarked), the “% Inhibition @ 10 uM” value was found to be 6.27%. The figure for `CCCCNS(=O)(=O)c1ccccc1[N+](=O)[O-]` is -2.44%; for `CCC(Oc1ccccc1)C(=O)Nc1ccc(Cl)cc1` (centres unmarked) it is -3.32%.

Turning to `COc1ccc2[nH]c(C)c(CCNCc3ccc(F)cc3)c2c1`, the “% Inhibition @ 10 uM” value is -10.2%. As for `COc1ccc(OC)c(C2=NOC(C(=O)NC(C)(C)C)C2)c1` (centres unmarked), the “% Inhibition @ 10 uM” value was determined as 4.41%. `Cc1cc(=O)n2nc(N3CCC(C(=O)N4CCN(Cc5ccccc5)CC4)CC3)sc2n1`: the “% Inhibition @ 10 uM” value is -0.281%. Consider `OC1(C#CCN2CCOCC2)CCCCC1`, for which the “% Inhibition @ 10 uM” value is reported as 3.16%.

Take `O=c1c(-c2ccc(F)cc2)coc2c(O)c(O)ccc12`: the “% Inhibition @ 10 uM” value is on record as -14.6%. The value for `CS(=O)(=O)c1sc2nc(-c3cccs3)cc(-c3ccccc3)c2c1N` was 64.2%; that for `O=C(NCc1ccccc1Cl)C1CCN(S(=O)(=O)N2CCOCC2)CC1` was -1.34%; that for `CCC(C)NC(=O)c1cnn2c(C)c(Cc3c(C)cc(C)cc3C)c(C)nc12` (centres unmarked) was 1.16%.

Take `S=C1NCN(Cc2ccccc2)CN1CC1CCCO1` (centres unmarked): the “% Inhibition @ 10 uM” value is reported as -7.56%. For `N#CC1=C(N)OC2=C(C(=O)CC(c3ccccc3)C2)C1c1ccc([N+](=O)[O-])cc1` (centres unmarked), the “% Inhibition @ 10 uM” value is given as -1.93%. Turning to `O=C(COc1ccccc1)Nc1cccnc1Cl`, the “% Inhibition @ 10 uM” value turned out to be 2.86%.

On to `CSc1nc(C)c(C(=O)Nc2ccccc2)c(-c2ccco2)c1C#N`, for which the “% Inhibition @ 10 uM” value is listed as 5.48%. In the case of `CCN(c1ccccc1)S(=O)(=O)c1ccc(NC(C)=O)cc1`, the “% Inhibition @ 10 uM” value worked out at 4.57%. On to `CCCCC(=O)N[C@@H](CC1CCCCC1)C(=O)NCC#N`, for which the “% Inhibition @ 10 uM” value is listed as -3.49%. On to `CSC1=NSC2=NC(=O)/C(=C\c3cccn3-c3ccccc3)C(=N)N12`, for which the “% Inhibition @ 10 uM” value is listed as 3.53%.

Regarding `Cn1cc(CCC(=O)NCCCN2CCC(Cc3ccccc3)CC2)c2ccccc21`, the “% Inhibition @ 10 uM” value came out at 3.28%. The value for `CCN(CC)CCNC(=O)C(NC(=O)c1ccc(C23CC4CC(CC(C4)C2)C3)cc1)C(C)C` (centres unmarked) was -2.49%. `CCc1ccc(OCC(=O)O/N=C(\N)c2ccncc2)cc1`: the “% Inhibition @ 10 uM” value was 0.147%. For the molecule `Cc1ccnc(NC(=O)CCn2cnc3onc(-c4ccc(F)cc4)c3c2=O)c1`, the “% Inhibition @ 10 uM” value amounted to 3.91%. For the molecule `O=C1c2[nH]nc(-c3ccccc3O)c2C(c2cccc(O)c2)N1Cc1ccco1` (centres unmarked), the “% Inhibition @ 10 uM” value is 3.62%. Take `CC(C)C[C@H](NC(=O)c1ccc(-c2ccc(Cl)cc2)cc1)C(=O)NCC#N`: the “% Inhibition @ 10 uM” value is -3.24%. For `O=C1CC(NCc2ccc(F)cc2)C(=O)N1c1ccc(Br)cc1` (centres unmarked), the “% Inhibition @ 10 uM” value is given as 4.06%. For the molecule `CC1=C(C(=O)Nc2cccc(C)n2)C(c2ccc(Cl)cc2)C2=C(O)CCCC2=N1` (centres unmarked), the “% Inhibition @ 10 uM” value was found to be 2.56%. The figure for `COc1cccc(OC)c1C(=O)Nc1ccc(C)c(Cl)c1` is -2.6%; for `CCCc1nn(-c2ccc(F)cc2)c(O)c1/C=N/CCCn1ccnc1` it is -1.24%; for `Cc1ccccc1NC(=O)c1cccc(C(=O)Nc2ccccc2C)n1` it is -0.872%. Regarding `COc1cc(CN2CCN(Cc3ccc(C)cc3)CC2)cc(OC)c1`, the “% Inhibition @ 10 uM” value is on record as -1.49%. The value for `Oc1nc(SCc2ccccc2)nc(O)c1Cc1ccccc1` was -2.12%. Take `COc1ccc(S(=O)(=O)N2CCCC(C)C2)cc1OC` (centres unmarked): the “% Inhibition @ 10 uM” value is reported as 5.85%.

Consider `CCOCCCNS(=O)(=O)c1ccc(NC(C)=O)cc1`, for which the “% Inhibition @ 10 uM” value is given as -9.26%.

In the case of `CN(Cc1ccco1)C(=O)c1noc2c1CSc1ccccc1-2`, the “% Inhibition @ 10 uM” value is 1.68%. Consider `CN(C(=O)c1ccc(Br)cc1)c1ccccc1`, for which the “% Inhibition @ 10 uM” value was -6.44%. The figure for `OC1(c2ccc(Br)cc2)CCN(Cc2c(F)cccc2Cl)CC1` is -3.27%; for `O=C1c2cccnc2C(=O)N1Cc1ccc(S(=O)(=O)NCCc2ccccc2)cc1` it is -2.65%; for `CCCNC(=O)c1c(N)sc2c1CCCCC2` it is 20.4%. On to `C=CCN1C(=O)N/C(=C/c2cc(Cl)c(OCc3ccccc3)c(OC)c2)C1=O`, for which the “% Inhibition @ 10 uM” value came out at 1.4%. The value for `COC(=O)c1ccc(Oc2nc(N(C)C)nc(N(C)C)n2)cc1` was 2.94%; that for `COc1ccc(CCNC(=O)CNC(=S)N(Cc2ccccc2)Cc2cccs2)cc1OC` was -3.94%; that for `CCOC(=O)c1c(CN(CC)CC)n(C)c2cc(Br)c(OC)cc12` was -4.11%. Take `CC(c1ccccc1)N1C(=O)c2ccc(C(=O)Nc3cc(Cl)ccc3C(=O)O)cc2C1=O` (centres unmarked): the “% Inhibition @ 10 uM” value is given as 4.05%. Consider `c1ccc(C2C3=C(CCCC3)Nc3ncnn32)cc1` (centres unmarked), for which the “% Inhibition @ 10 uM” value is 4.09%. For the molecule `CCCNC(=O)CCC(=O)n1ncc2ccccc21`, the “% Inhibition @ 10 uM” value is -1.08%. The value for `COc1cc(CN(C(=O)c2oc3ccc(C)cc3c2C)C2CCS(=O)(=O)C2)cc(OC)c1OC` (centres unmarked) was -5.08%. The figure for `CCOc1cc(C2C3=C(O)CCCC3=NC(C)=C2C(=O)Nc2ccccc2C)ccc1O` (centres unmarked) is -6.6%; for `CC(Cc1ccc(F)cc1)N(CCO)Cc1ccccc1` (centres unmarked) it is -3.72%; for `O=C1NC(=O)/C(=C\c2ccc(N3CCCC3)c(F)c2)S1` it is -4.52%. As to `CCC(C)(NC(=O)c1ccc2c(c1)OCO2)C(=O)NC1CCCCC1` (centres unmarked), the “% Inhibition @ 10 uM” value came to 5.85%. For the molecule `N#CC1=C(N)N(c2nc[nH]n2)C2=C(C(=O)CC(c3ccccc3)C2)C1c1ccc(Cl)cc1` (centres unmarked), the “% Inhibition @ 10 uM” value came to 3.99%.

For `CCOC(=O)c1ccc2c(c1)c1c(n2-c2ccccc2)CCCC1`, the “% Inhibition @ 10 uM” value is given as -1.66%. `COCCCNc1nc2c(S(=O)(=O)c3ccc(C)c(C)c3)nnn2c2ccccc12`: the “% Inhibition @ 10 uM” value is listed as -3.08%. As for `Cc1cc(-c2ccc(S(=O)(=O)NCCc3ccc(Cl)cc3)cc2)on1`, the “% Inhibition @ 10 uM” value is given as -2.19%. As to `COCCNC(=O)Cn1ncn2nc(-c3ccc(OC)cc3)cc2c1=O`, the “% Inhibition @ 10 uM” value is 0.623%. Consider `COc1ccc2nc(C)cc(C(=O)O)c2c1`, for which the “% Inhibition @ 10 uM” value worked out at 3.15%. The value for `COc1ccc(-c2cc(C(=O)O)c3ccccc3n2)c(F)c1` was 2.94%; that for `CCc1ccccc1NC(=O)CSc1ccc(C)cc1` was 3.05%; that for `CCOc1cc(/C=C2\SC(=O)N(CC(=O)Nc3ccccc3)C2=O)c(Br)cc1O` was -6.83%.

On to `Oc1c2c(nc3nc(NCc4ccccc4F)nn13)CCC2`, for which the “% Inhibition @ 10 uM” value came out at 1%. Turning to `O=C1CC(=O)N(Cc2ccc(F)cc2)C(=O)N1`, the “% Inhibition @ 10 uM” value is reported as -4.01%. For `Cn1cc(NC(=O)NC2CCCCC2)c2ccccc2c1=O`, the “% Inhibition @ 10 uM” value is reported as -4.23%. Consider `C=CCN1C(=O)C(Cc2ccc(Br)cc2)S/C1=N\N=C\c1ccco1` (centres unmarked), for which the “% Inhibition @ 10 uM” value was -0.053%. Take `O=C(CN1N=C(c2ccccc2)CCC1=O)NCc1ccccc1Cl`: the “% Inhibition @ 10 uM” value is reported as -6.75%.
